The source of these data is the RNAGym collection of RNA variant scans (doi:10.1093/nar/gkz1192).

The chains are these.
B1: CPEB3 Ribozyme (parent)
chain: UAACAGGGGGCCACAGCAGAAGCGUUCACGUCGCAGCCCCUGUCAGAUUCUGGUGAAUCUGCGAAUUCUGCUGUAUAUCUC

Read counts are not given, so values of variants with three or more changes are uncertain.

The variants in this series derive from B1. Nature of the series: self-cleavage, relative activity (ratio to wild type); higher = more cleavage; in vitro, sequencing. Put shortly: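 Relative activity compares each variant's cleaved/total read fraction with that of the unmutated ribozyme. To get these fractions, barcoded CPEB3 ribozyme libraries from rounds of error-prone PCR were transcribed with T7 RNA polymerase for 5 hours at 37°C and then given 15 min of DNase I treatment before EDTA was added. The RNAs were reverse transcribed with template switching and sequenced on Illumina, and DNA sequencing linked barcodes to variants. A minimum of 5 reads applied, and three batches were averaged.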
For the variant UAACAGGGGGCCACAGCAGAAGCGUUCACGUCGCUGCCCCUGUCAGAUUCUGGUGAAUCUGCGGAUUCUGCUGCACAUCUC, the self-cleavage was 0.5.
The figure for UAACAGGGGGCCACAGCAGAAGCGUUCACGUCGCUGCCCCUGUCAGAUUCUGGUGUAUCUGCGAAUUCUGCUGUAUACCCC is 0.19.
As for UAACAGGGGGCCACAGCAGAAGCGUUCACGUCGCUGCCCCUGUCGGACUCUGGUGAAUCUGCGAAUCCUGCUGUAUAACAC, the figure is 0.06.
Turning to UAACAGGGGGCCACAGCAGAAGCGUUCACGUCGCUGCACCUGGCAGAUUCUGGUGAAUCUGCGAAUUCUGCUGUAUAUCUC, the self-cleavage is 0.17.
As for UAACAGGGGGCCACAGCAGAAGCGUUCACGUCGCUGCCCCUGUCAGAUUCUGGUGCAUCUGCGAACUCUGCUGUGUAUCUC, the figure is 0.11.
The figure for UAACAGGGGGCCACAGCAGAAGCGUUCACGUCGCUGCCCCUGUCAGAUUCUGGUGAGUCUGCGAGUUCUGCUGUAUAUCUC is 0.14; for UAACAGGGGGCCACAGCAGAAGCGUUCACGUCGCUGCCCCUGUCAGAUUCUGGUGAAUCUGCGGAUUUUGCCGUAUAUCUC it is 0.08.
In the case of UAACAGGGGGCCACAGCAGAAGCGUUCACGUCGCUGACCCUGUCAGAUUCUGGCGAAUCUGCGAAUUCUGCUGUUUAUCUC, the self-cleavage is 0.15.
The figure for UAACAGGGGGCCACAGCAGAAGCGUUCACGUCGCUGCCCCUGUCAGAUUCUGGUGAAUCUGCGAUUACUGCUGUAUAUCUC is 0.13.
The figure for UAACAGGGGGCCACAGCAGAAGCGUUCACGUCGCUGCCACUGUCAGAUUCUGGUGACUCUGCGAAUUCUGCUGUAUAUCUC is 0.09.
With UAACAGGGGGCCACAGCAGAAGCGUUCACGUCGCUGCCCCUGUCAGAUUCUGGUGAAUCUGCGUAUUCAGCUGUAUACCUC, the self-cleavage was found to be 0.33.
As for UAACAGGGGGCCACAGCAGAAGCGUUCACGUCGCUGCCCCUGUCAGAUUCUGGUGAUUCUGCGAAUUCCGCUGUAUAUCUC, the figure is 0.14; as for UAACAGGGGGCCACAGCAGAAGCGUUCACGUCGCUGCCCCUGUCAGAUUCUGGUGAAUCUGCGGAUUCUGCUGUAAAUCUC, 0.21; as for UAACAGGGGGCCACAGCAGAAGCGUUCACGUCGCUGCCCCUGUCAGAUUCUGGUGAGUCUGCGAAUUCUGCGGUAUAUCUC, 0.29.
As for UAACAGGGGGCCACAGCAGAAGCGUUCACGUCGCUGCCCCUGUCGGAUUCUGGUGAAUCUGCUAAUUCUGCUGUAUAUCUC, the figure is 0.38; as for UAACAGGGGGCCACAGCAGAAGCGUUCACGUCGCUGCCCCUGUCGGAUCCUGGUGAAUCUGCGAAUUCUGCUGUAUAUCUC, 0.18; as for UAACAGGGGGCCACAGCAGAAGCGUUCACGUCGCUGCCCCUGUCGGAUUCUGGUGAAUCUGCGAAUUCGGCUGUAUAUCUC, 0.14.
As for UAACAGGGGGCCACAGCAGAAGCGUUCACGUCGCUGCCCCUGUCAGAUUCUGGUGACUCAGCGAAUUCUGCGGUAUGUCUC, the figure is 0.06; as for UAACAGGGGGCCACAGCAGAAGCGUUCACGUCGCUGCCCCUGUCAGAUUCUGGUGAAUCUGCGGAUCCUGCCGUAUUCCUC, 0.06; as for UAACAGGGGGCCACAGCAGAAGCGUUCACGUCGCUGCCCCUGUCAGGUUCUGGUGAAUCUGCGAAUUCUGCCGUAUAUCUC, 0.62.
Take UAACAGGGGGCCACAGCAGAAGCGUUCACGUCGCUGCCCCUGUCAGCUUCUGGAGAAUCUGAGAAUUCUGCCGUAUAUCUC: the self-cleavage was 0.06.
As for UAACAGGGGGCCACAGCAGAAGCGUUCACGUCGCUGCCCCUGUCAGAUUCUGGUGAUUCUGCUGAUUCUGUUGUAUAUCUC, the figure is 0.07.
The figure for UAACAGGGGGCCACAGCAGAAGCGUUCACGUCGCUGCCCCUGUCAGAUUCUGGUGAAUCUGCGAAUUCUGCUGUUUAUCCC is 0.55; for UAACAGGGGGCCACAGCAGAAGCGUUCACGUCGCUGCCCCUGUCAGAUUCUGGUGUAGCUGCGAACUCUGCUGUAUAUCUC it is 0.04; for UAACAGGGGGCCACAGCAGAAGCGUUCACGUCGCUGCCCCUGUCAGGUUCUGGUGAAUCUGCGAAUUCUGCUGUAUACCUC it is 0.46.
The figure for UAACAGGGGGCCACAGCAGAAGCGUUCACGUCGCUGCCCCUGUCAGGUUCUGGUGAAUAUGCGAAAUCUGCCGUAUAUCUC is 0.05; for UAACAGGGGGCCACAGCAGAAGCGUUCACGUCGCUGCCCCUGUCGGACUCCGGUGAACCUGCGAAUUCAGCUGUAUUUCUC it is 0.03; for UAACAGGGGGCCACAGCAGAAGCGUUCACGUCGCUGCCCCUGUCAGAUUCUGGUGAGUCUGCGGAUUCUGCUGUAUACCUC it is 0.12.
As to UAACAGGGGGCCACAGCAGAAGCGUUCACGUCGCUGCCCCUGUCUGAUUCUGGAGAAUCAGCUAACUCUGCUGUAUAUCUC, the self-cleavage was determined as 0.11.
The figure for UAACAGGGGGCCACAGCAGAAGCGUUCACGUCGCUGCCCCUGUCAGAUUCUGGUGAGUCUGCGAAUUCUGCUGUAUAGCUC is 0.35; for UAACAGGGGGCCACAGCAGAAGCGUUCACGUCGCUGCCCCUGUCAGAUUCUGGUGAAUCUGCGGACUCUGCUGUAUACCUC it is 0.15.
The figure for UAACAGGGGGCCACAGCAGAAGCGUUCACGUCGCUGCCCCUGUCUGAUUCUGGUGAAUCUGCGAAUUCUGCUGUUUAUCUC is 0.45; for UAACAGGGGGCCACAGCAGAAGCGUUCACGUCGCUGCCCCUGUCAGAUUCUGGUGGAUCAGCUAAUUCUGCCGUAUAUCUC it is 0.17; for UAACAGGGGGCCACAGCAGAAGCGUUCACGUCGCUGCUCCUGUCAGAUUCUGGUGAAUCUGCGAAUCCUGCUGUAUACCUC it is 0.07.
